In publication PMC9911399, “Two distinct binding modes provide the RNA-binding protein RbFox with extraordinary sequence specificity”:
Positions count from the first letter of the chain named. Some of the results follow.

T1: RBFOX1 RRM (Homo sapiens, UniProt Q9NWB1 109-208)
T1 sequence: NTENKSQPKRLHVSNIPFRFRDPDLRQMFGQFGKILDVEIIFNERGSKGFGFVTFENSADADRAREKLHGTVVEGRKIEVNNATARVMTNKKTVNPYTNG

B1: GUGGACU (DNA:RNA)
RNA: GGGAGACCGGAAUUCAGAUUGUCCGUGGACUUUAAAUCCCGUCGUAGCCACCA
DNA 1: CAATCTGAATTCCGGTCTCCC
DNA 2: TGGTGGCTACGACGGGATT
B2: ACUACCU (DNA:RNA)
RNA: B1 RNA with G25A, U26C, G27U, G28A, A29C
DNA 1: CAATCTGAATTCCGGTCTCCC
DNA 2: TGGTGGCTACGACGGGATT
B3: AUUUGGG (DNA:RNA)
RNA: B1 RNA with G25A, G27U, G28U, A29G, C30G, U31G
DNA 1: CAATCTGAATTCCGGTCTCCC
DNA 2: TGGTGGCTACGACGGGATT
B4: UAGCAAC (DNA:RNA)
RNA: B1 RNA with G25U, U26A, G28C, C30A, U31C
DNA 1: CAATCTGAATTCCGGTCTCCC
DNA 2: TGGTGGCTACGACGGGATT
B5: UGACGGC (DNA:RNA)
RNA: GGGAGACCGGAAUUCAGAUUGUCCUGACGGCUUAAAUCCCGUCGUAGCCACCA
DNA 1: CAATCTGAATTCCGGTCTCCC
DNA 2: TGGTGGCTACGACGGGATT
B6: GGACAUG (DNA:RNA)
RNA: B5 RNA with U25G, G29A, G30U, C31G
DNA 1: CAATCTGAATTCCGGTCTCCC
DNA 2: TGGTGGCTACGACGGGATT
B7: CGGCGAA (DNA:RNA)
RNA: B5 RNA with U25C, A27G, G30A, C31A
DNA 1: CAATCTGAATTCCGGTCTCCC
DNA 2: TGGTGGCTACGACGGGATT
B8: CGCAGUA (DNA:RNA)
RNA: B5 RNA with U25C, A27C, C28A, G30U, C31A
DNA 1: CAATCTGAATTCCGGTCTCCC
DNA 2: TGGTGGCTACGACGGGATT
B9: UGCGUGU (DNA:RNA)
RNA: B5 RNA with A27C, C28G, G29U, C31U
DNA 1: CAATCTGAATTCCGGTCTCCC
DNA 2: TGGTGGCTACGACGGGATT
B10: UUGGACU (DNA:RNA)
RNA: B1 RNA with G25U
DNA 1: CAATCTGAATTCCGGTCTCCC
DNA 2: TGGTGGCTACGACGGGATT
B11: GUUGCCG (DNA:RNA)
RNA: B1 RNA with G27U, A29C, U31G
DNA 1: CAATCTGAATTCCGGTCTCCC
DNA 2: TGGTGGCTACGACGGGATT
B12: UACCAAA (DNA:RNA)
RNA: B5 RNA with G26A, A27C, G29A, G30A, C31A
DNA 1: CAATCTGAATTCCGGTCTCCC
DNA 2: TGGTGGCTACGACGGGATT
B13: UCAUAGA (DNA:RNA)
RNA: B5 RNA with G26C, C28U, G29A, C31A
DNA 1: CAATCTGAATTCCGGTCTCCC
DNA 2: TGGTGGCTACGACGGGATT
B14: CAGUCGC (DNA:RNA)
RNA: B5 RNA with U25C, G26A, A27G, C28U, G29C
DNA 1: CAATCTGAATTCCGGTCTCCC
DNA 2: TGGTGGCTACGACGGGATT
B15: CCCACGU (DNA:RNA)
RNA: B1 RNA with G25C, U26C, G27C, G28A, A29C, C30G
DNA 1: CAATCTGAATTCCGGTCTCCC
DNA 2: TGGTGGCTACGACGGGATT
B16: CGCCCGU (DNA:RNA)
RNA: B5 RNA with U25C, A27C, G29C, C31U
DNA 1: CAATCTGAATTCCGGTCTCCC
DNA 2: TGGTGGCTACGACGGGATT
B17: CAAGCUC (DNA:RNA)
RNA: B5 RNA with U25C, G26A, C28G, G29C, G30U
DNA 1: CAATCTGAATTCCGGTCTCCC
DNA 2: TGGTGGCTACGACGGGATT
B18: UAUAUGU (DNA:RNA)
RNA: B5 RNA with G26A, A27U, C28A, G29U, C31U
DNA 1: CAATCTGAATTCCGGTCTCCC
DNA 2: TGGTGGCTACGACGGGATT
B19: AUAGUUC (DNA:RNA)
RNA: B1 RNA with G25A, G27A, A29U, C30U, U31C
DNA 1: CAATCTGAATTCCGGTCTCCC
DNA 2: TGGTGGCTACGACGGGATT
B20: AGUUCGC (DNA:RNA)
RNA: B5 RNA with U25A, A27U, C28U, G29C
DNA 1: CAATCTGAATTCCGGTCTCCC
DNA 2: TGGTGGCTACGACGGGATT

target: T1, RBFOX1 RRM; assay: EMSA; HiTS-Eq, 1 nM pool, 10 min; buffer printed only for the single-RNA assays: 10 mM Tris pH 7.5, 150 mM NaCl, 3.4 mM EDTA, 0.001% NP-40, 30 C; details: tags: His6 N-terminal (pET28a); label: 5' 32P
Method in brief: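 Purified RbFox RRM, wild type or mutant, was incubated for 10 min in 50 µL with 1 nM of a 5′-radiolabelled RNA pool carrying 7 randomized nucleotides, whose flanks were annealed to DNA oligonucleotides, over a series of increasing protein concentrations. Unbound RNA was resolved on 8% native PAGE, cut out, reverse-transcribed, barcoded by PCR and sequenced on an Illumina HiSeq 2500. Relative association constants were derived from changes in read counts for each RNA species versus the control reaction and normalised to the cognate motif.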

Binder	binding signal
B1	0.0138 KA relative to UGCAUGU
B2	0.000318 KA relative to UGCAUGU
B3	0.00492 KA relative to UGCAUGU
B4	0.0121 KA relative to UGCAUGU
B5	0.0181 KA relative to UGCAUGU
B6	0.0229 KA relative to UGCAUGU
B7	0.0142 KA relative to UGCAUGU
B8	0.00671 KA relative to UGCAUGU
B9	0.0418 KA relative to UGCAUGU
B10	0.00509 KA relative to UGCAUGU
B11	0.0171 KA relative to UGCAUGU
B12	0.000955 KA relative to UGCAUGU
B13	0.00755 KA relative to UGCAUGU
B14	0.00829 KA relative to UGCAUGU
B15	0.0062 KA relative to UGCAUGU
B16	0.0143 KA relative to UGCAUGU
B17	0.00414 KA relative to UGCAUGU
B18	0.0165 KA relative to UGCAUGU
B19	0.00888 KA relative to UGCAUGU
B20	0.0143 KA relative to UGCAUGU
